# Assay results reported in the supplement of paper PMC4996465.
# Counter-ions that a name gives are not always drawn. Viability of KB3-1 and Nalm-6 cells after 48 h of drug alone (CellTiter-Glo), 11 doses over about 4.5 log units. % of DMSO wells, lower = more cell loss; AC50 from the fitted curve, lower = more potent. No active / inactive call. Nalm-6 was screened in two runs. AC50 is listed only for well-fitted inhibitory curves. KB3-1 is a HeLa-derived carcinoma line, Nalm-6 a B-cell precursor leukaemia line.
# What was measured:
# KB3-1 [1] = test: viability (% of DMSO control); higher = more viable cells
# Procedure: (§1)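 Eleven-dose screen of the NCATS MIPE 3 library on cells without co-treatment; CellTiter-Glo after 48 h, as % of DMSO wells.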
# Nalm-6 [2] = test: as above
# Procedure: as §1
# Nalm-6 [3] = test: log AC50 of viability decrease (48 h) (log10 M); higher = less potent
# Procedure: (§2)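 Eleven-dose screen of the NCATS MIPE 3 library on cells without co-treatment; CellTiter-Glo after 48 h. AC50 from the curve fit; only inhibitory curves of the better fit classes are listed.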
# KB3-1 [4] = test: as above
# Procedure: as §2
SMILES,viability (KB3-1 [1]; 0.00078 µM) [%],viability (KB3-1 [1]; 0.00234 µM) [%],viability (KB3-1 [1]; 0.00702 µM) [%],viability (KB3-1 [1]; 0.0211 µM) [%],viability (KB3-1 [1]; 0.0632 µM) [%],viability (KB3-1 [1]; 0.19 µM) [%],viability (KB3-1 [1]; 0.569 µM) [%],viability (KB3-1 [1]; 1.71 µM) [%],viability (KB3-1 [1]; 5.12 µM) [%],viability (KB3-1 [1]; 15.4 µM) [%],viability (KB3-1 [1]; 46.1 µM) [%],"viability (Nalm-6 [2]; run: 1, 0.00078 µM) [%]","viability (Nalm-6 [2]; run: 1, 0.00234 µM) [%]","viability (Nalm-6 [2]; run: 1, 0.00702 µM) [%]","viability (Nalm-6 [2]; run: 1, 0.0211 µM) [%]","viability (Nalm-6 [2]; run: 1, 0.0632 µM) [%]","viability (Nalm-6 [2]; run: 1, 0.19 µM) [%]","viability (Nalm-6 [2]; run: 1, 0.569 µM) [%]","viability (Nalm-6 [2]; run: 1, 1.71 µM) [%]","viability (Nalm-6 [2]; run: 1, 5.12 µM) [%]",further results
CC[C@@H]1C(=O)N(C)c2cnc(Nc3ccc(C(=O)NC4CCC(N5CCN(CC6CC6)CC5)CC4)cc3OC)nc2N1C(C)C (stereo partly drawn) [Volasertib],84.7,52.8,25.8,26,31.1,27.4,34.7,48.4,56.7,49.6,4.7,97.1,89.6,81.5,19.7,16.7,16.4,17.4,13.1,9.13,"viability (Nalm-6 [2]; run: 1, 15.4 µM): 4.69%; viability (Nalm-6 [2]; run: 1, 46.1 µM): 4.98%; viability (Nalm-6 [2]; run: 2, 0.00078 µM): 106%; viability (Nalm-6 [2]; run: 2, 0.00234 µM): 100%; viability (Nalm-6 [2]; run: 2, 0.00702 µM): 88.5%; viability (Nalm-6 [2]; run: 2, 0.0211 µM): 25.4%; viability (Nalm-6 [2]; run: 2, 0.0632 µM): 13%; viability (Nalm-6 [2]; run: 2, 0.19 µM): 12.9%; viability (Nalm-6 [2]; run: 2, 0.569 µM): 13.4%; viability (Nalm-6 [2]; run: 2, 1.71 µM): 6.53%; viability (Nalm-6 [2]; run: 2, 5.12 µM): 4.28%; viability (Nalm-6 [2]; run: 2, 15.4 µM): 3.67%; viability (Nalm-6 [2]; run: 2, 46.1 µM): 3.17%; log AC50 of viability decrease (Nalm-6 [3]; run: 1): -7.93; log AC50 of viability decrease (Nalm-6 [3]; run: 2): -7.88"
CCOC(=O)N[C@@H]1CC[C@@H]2[C@@H](C1)C[C@H]1C(=O)O[C@H](C)[C@H]1[C@H]2/C=C/c1ccc(-c2cccc(F)c2)cn1 [Vorapaxar],105,104,102,99.4,102,104,100,103,100,95.4,75.8,116,117,119,121,119,120,125,117,108,"viability (Nalm-6 [2]; run: 1, 15.4 µM): 87.8%; viability (Nalm-6 [2]; run: 1, 46.1 µM): 47.6%; viability (Nalm-6 [2]; run: 2, 0.00078 µM): 106%; viability (Nalm-6 [2]; run: 2, 0.00234 µM): 108%; viability (Nalm-6 [2]; run: 2, 0.00702 µM): 111%; viability (Nalm-6 [2]; run: 2, 0.0211 µM): 113%; viability (Nalm-6 [2]; run: 2, 0.0632 µM): 109%; viability (Nalm-6 [2]; run: 2, 0.19 µM): 111%; viability (Nalm-6 [2]; run: 2, 0.569 µM): 103%; viability (Nalm-6 [2]; run: 2, 1.71 µM): 106%; viability (Nalm-6 [2]; run: 2, 5.12 µM): 107%; viability (Nalm-6 [2]; run: 2, 15.4 µM): 103%; viability (Nalm-6 [2]; run: 2, 46.1 µM): 61.3%; log AC50 of viability decrease (Nalm-6 [3]; run: 1): -4.78"
O=C(CCCCCCC(=O)Nc1ccccc1)NO [Vorinostat],,,,,,,,,,,,,,,,,,,,,viability (KB3-1 [1]; 0.00156 µM): 103%; viability (KB3-1 [1]; 0.00468 µM): 103%; viability (KB3-1 [1]; 0.014 µM): 96.8%; viability (KB3-1 [1]; 0.0421 µM): 97.2%; viability (KB3-1 [1]; 0.126 µM): 88.7%; viability (KB3-1 [1]; 0.379 µM): 62.2%; viability (KB3-1 [1]; 1.14 µM): 41.1%; viability (KB3-1 [1]; 3.41 µM): 32%; viability (KB3-1 [1]; 10.2 µM): 21.8%; viability (KB3-1 [1]; 30.7 µM): 17.8%; viability (KB3-1 [1]; 92.2 µM): 15.7%; log AC50 of viability decrease (KB3-1 [4]): -6.32
CC1(CN2CCC(n3c(=O)[nH]c4ccccc43)CC2)OCc2ccccc2-n2cccc21 (stereo not drawn) [Zaldaride maleate],97.7,98.1,102,103,99.9,99.3,98.9,102,99.5,90.9,27.1,103,106,102,107,109,110,96.7,115,103,"viability (Nalm-6 [2]; run: 1, 15.4 µM): 100%; viability (Nalm-6 [2]; run: 1, 46.1 µM): 4.29%; viability (Nalm-6 [2]; run: 2, 0.00078 µM): 102%; viability (Nalm-6 [2]; run: 2, 0.00234 µM): 107%; viability (Nalm-6 [2]; run: 2, 0.00702 µM): 101%; viability (Nalm-6 [2]; run: 2, 0.0211 µM): 104%; viability (Nalm-6 [2]; run: 2, 0.0632 µM): 93.7%; viability (Nalm-6 [2]; run: 2, 0.19 µM): 96.6%; viability (Nalm-6 [2]; run: 2, 0.569 µM): 113%; viability (Nalm-6 [2]; run: 2, 1.71 µM): 101%; viability (Nalm-6 [2]; run: 2, 5.12 µM): 98.1%; viability (Nalm-6 [2]; run: 2, 15.4 µM): 91.4%; viability (Nalm-6 [2]; run: 2, 46.1 µM): 3.87%; log AC50 of viability decrease (Nalm-6 [3]; run: 2): -4.58"
Cl.Oc1cn2c(n1)Nc1ccc(Cl)c(Cl)c1C2 [anagrelide],91.5,83.9,70.4,58.2,50.8,47.2,54,48.2,48.7,48.4,41.4,108,110,127,112,122,116,129,123,116,"viability (Nalm-6 [2]; run: 1, 15.4 µM): 117%; viability (Nalm-6 [2]; run: 1, 46.1 µM): 61.8%; viability (Nalm-6 [2]; run: 2, 0.00078 µM): 106%; viability (Nalm-6 [2]; run: 2, 0.00234 µM): 113%; viability (Nalm-6 [2]; run: 2, 0.00702 µM): 112%; viability (Nalm-6 [2]; run: 2, 0.0211 µM): 109%; viability (Nalm-6 [2]; run: 2, 0.0632 µM): 114%; viability (Nalm-6 [2]; run: 2, 0.19 µM): 108%; viability (Nalm-6 [2]; run: 2, 0.569 µM): 114%; viability (Nalm-6 [2]; run: 2, 1.71 µM): 111%; viability (Nalm-6 [2]; run: 2, 5.12 µM): 99.1%; viability (Nalm-6 [2]; run: 2, 15.4 µM): 84%; viability (Nalm-6 [2]; run: 2, 46.1 µM): 96.5%; log AC50 of viability decrease (KB3-1 [4]): -8.18"
CCCCn1c(=O)n(Cc2ccccc2F)c(=O)c2nc(Cc3ccc(NC(C)=O)cc3)[nH]c21 [cPEPCK inhibitor],97.7,96.8,103,99.7,95.2,96.7,96.8,9.13,4.89,87.5,77.9,124,105,112,115,123,105,106,84.3,32.8,"viability (Nalm-6 [2]; run: 1, 15.4 µM): 9.4%; viability (Nalm-6 [2]; run: 1, 46.1 µM): 5.37%; viability (Nalm-6 [2]; run: 2, 0.00078 µM): 112%; viability (Nalm-6 [2]; run: 2, 0.00234 µM): 102%; viability (Nalm-6 [2]; run: 2, 0.00702 µM): 105%; viability (Nalm-6 [2]; run: 2, 0.0211 µM): 115%; viability (Nalm-6 [2]; run: 2, 0.0632 µM): 111%; viability (Nalm-6 [2]; run: 2, 0.19 µM): 110%; viability (Nalm-6 [2]; run: 2, 0.569 µM): 106%; viability (Nalm-6 [2]; run: 2, 1.71 µM): 107%; viability (Nalm-6 [2]; run: 2, 5.12 µM): 107%; viability (Nalm-6 [2]; run: 2, 15.4 µM): 106%; viability (Nalm-6 [2]; run: 2, 46.1 µM): 93.3%; log AC50 of viability decrease (Nalm-6 [3]; run: 1): -5.48"
